Data on 57 compounds can be found in PubChem BioAssay (NCI).

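How tested: cells in 96-well plates exposed to compound for 48 hours at five concentrations. Here, GI50 denotes the concentration required for 50% inhibition of growth. TGI: concentration producing complete growth inhibition.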 A value given as a limit tells only on which side of the number the result lay.

This assay has as its system NCI-H322M lung. The assay is described as follows: NCI anticancer screen, dose series, 48 h.
For `O=C(O)CCCC(=O)Nn1c(Cc2ccc(Cl)cc2)n[nH]c1=O`, the TGI is greater than 100 µM. The compound `COC(=O)C1CCc2c1c(=O)n1c([nH]c3ccccc31)c2C#N` (stereo unspecified) gave a TGI greater than 100 µM. As to `O=C(CSc1nc2ccc([N+](=O)[O-])cc2s1)c1ccc2ccccc2c1`, the TGI was greater than 100 µM. Regarding `COc1c(CC=C(C)C)c(O)c(C(CC(C)C)c2c(O)c3c(c(C(C)=O)c2O)OC(C(C)(C)O)C3)c(O)c1C(C)=O` (stereo unspecified), the TGI was greater than 12.5 µM. The compound `Cn1c2c(c3ccccc31)CCN(CCCCN1CCCCC1)C2=O` returned a TGI greater than 100 µM. Take `CN(C)CCCc1cccc2[nH]c3c(c12)CN(C)CC3`: the TGI was greater than 100 µM. For the compound `Cc1cc(S(=O)(=O)Nc2nc3ccccc3o2)c(SCc2ccccc2)cc1Cl`, the GI50 was 18.4 µM and the TGI was 41 µM. Consider `Cc1cc(C)n(CC(Cn2nc(C)cc2C)=C(/C(Cl)=C(/Cl)Nc2ccc([N+](=O)[O-])cc2)[N+](=O)[O-])n1`, for which the TGI stood at 17.1 µM.

Turning to `COc1ccc(C2=N[C@@H](Cc3ccccc3)C(=O)Nc3ccsc32)cc1`, the GI50 was 7.46 µM and the TGI was determined as 48.7 µM.

Turning to `C=CCn1c(-c2ccc([N+](=O)[O-])cc2)cs/c1=N\C(P(=O)(O)O)P(=O)(O)O`, the TGI is greater than 100 µM. Turning to `COc1ccc2c(c1OC)C[C@@H]1c3c(cc4c(c3-2)OCO4)CCN1C`, the TGI was greater than 100 µM. Still for that read-out and setting: the result for `COC(=O)CC(NC(=O)OCc1ccccc1)C(C(C)=O)C(=O)OCc1ccccc1` (stereo unspecified) reads greater than 31.6 µM.

As to `COCCNCc1ccc(-c2cc3nccc(Oc4ccc(NC(=S)NC(=O)Cc5ccc(F)cc5)cc4F)c3s2)nc1`, the GI50 was 2.67 µM and the TGI amounted to 8.26 µM. Turning to `Cc1cc(NCCCCCCCCNc2cc(C)nc3cc(N)ccc23)c2ccc(N)cc2n1`, the TGI was 67.6 µM.

`CC(NC(=O)/C(=C/c1ccccc1)NC(=O)c1ccccc1)C(=O)O` (stereo unspecified) came in with a TGI greater than 100 µM.

For the compound `Nc1c(C(=O)O)nnc2cc(Cl)c(Cl)cc12`, the TGI was greater than 100 µM. With `O=C1CSCc2sccc21`, the TGI is greater than 100 µM.

As to `O=c1c2c(=NCCN3CCCC3)cc3c(=O)n(CCCN4CCOCC4)c(=O)c4c(-c5ccc(CN6CCCC6)cc5)cc(c(O)n1CCCN1CCOCC1)c2c4-3`, the GI50 is 0.0371 µM and the TGI was 0.306 µM.

`CC(C)(O)/C=C\P(=O)(O)O` registered a TGI greater than 100 µM.

For the compound `COC[C@@H](N=C1NC(=O)/C(=C/c2ccc3ncccc3c2)S1)c1ccccc1`, the GI50 is 8.55 µM and the TGI is greater than 25 µM. The compound `N#Cc1cccc2c1Nc1ccccc1S2` had a TGI greater than 100 µM. In the case of `CC(C)OP(=O)(OC(C)C)/C(Cl)=N/Nc1ccc([N+](=O)[O-])cc1`, the TGI was greater than 100 µM. With `CCOC(=O)c1cc(C(=O)c2cc(OC)c(OC)c(OC)c2)n2ncccc12`, the GI50 is 0.694 µM and the TGI was greater than 100 µM. Turning to `CCCCCN(CCCCC)C(=O)[C@@H](CCC(=O)O)NC(=O)c1cc2ccccc2[nH]1`, the TGI was greater than 100 µM. `O=C1CSC(/C=C/c2ccccc2)N1c1nc2cc3sc(N4C(=O)CSC4/C=C/c4ccccc4)nc3cc2s1` (stereo unspecified) displayed a TGI greater than 100 µM. As to `CCN1C(=S)N(c2ccccc2)C2NC(=S)N(/N=C/C=C/c3ccccc3OC)C21` (stereo unspecified), the GI50 was 0.751 µM and the TGI was greater than 100 µM. In the case of `CCC(C)[C@H]1O[C@]2(CC[C@@H]1C)C[C@@H]1C[C@@H](C/C=C(\C)[C@@H](OC3C[C@H](OC)C(O[C@H]4C[C@H](OC)[C@@H](O)[C@H](C)O4)[C@H](C)O3)[C@@H](C)/C=C/C=C3\CO[C@@H]4[C@H](O)C(C)=C[C@@H](C(=O)O1)[C@]34O)O2` (stereo partly specified), the GI50 was 3.36 µM and the TGI is 15.4 µM. Take `CC(C)(CN1CCCCC1)C(=O)/C=C/c1ccc(/C=C/C(=O)C(C)(C)CN2CCCCC2)cc1`: the TGI turned out to be 2.33 µM. The compound `COc1ccc(N=N/C(=N/NC(=O)c2ccc(C)cc2)c2ccc(N(CCC#N)CCC#N)cc2OC)cc1` yielded a TGI greater than 100 µM. For `CC(=O)Nc1ccc2c(c1)C(c1ccccc1Cl)=Nc1c(n[nH]c1C)N2`, the GI50 was greater than 22.2 µM and the TGI was greater than 25 µM. `Cc1c(N2C(=O)/C(=C/c3ccc(Cl)cc3)N=C2c2ccccc2)c(=O)n(-c2ccccc2)n1C` returned a TGI greater than 100 µM. As for `CC(=O)C1=C(C)N2C(=NC3=C(CCc4ccccc43)C2c2ccc(F)cc2)S1` (stereo unspecified), the TGI is greater than 100 µM.

`C/C(=N\NC(=S)N1CCCCC1)c1ccccn1`: the GI50 is 0.0791 µM and the TGI was determined as 4.13 µM. Taken in the same sequence, the figures for `C=C1CC[C@@H]2[C@](C)(COC(C)=O)[C@H](OC(C)=O)CC[C@@]2(C)[C@@H]1CC(Nc1ccc(S(=O)(=O)NC(C)=O)cc1)C1=CCOC1=O` (stereo partly specified) were 10.3 µM and 20.3 µM.

In turn, `c1cc(NNc2cccc(-c3nn[nH]n3)c2)cc(-c2nn[nH]n2)c1` came in with a TGI greater than 100 µM. On to `O=c1[nH]c(Nc2ccc(Cl)c(C(F)(F)F)c2)nc2nc[nH]c12`, for which the TGI is greater than 100 µM. Still for that read-out and setting: to `O=C(O)c1ccc(C(=O)c2ccccc2C(=O)O)cc1C(=O)O` belongs greater than 100 µM. In turn, `CC(C)c1[nH]nc(C(N)=O)c1N=NN(C)C` yielded a TGI greater than 100 µM. `CCOC(=O)C1Cc2c(cc3c4c(cccc24)N(C(C)=O)C3)N(C)C1` (stereo unspecified) displayed a TGI greater than 100 µM. The same measure, in the same setting: the result for `N=C1OC(CN2CCN(c3ccccc3)CC2)CN1C(=S)Nc1ccccc1` (stereo unspecified) reads greater than 100 µM; that for `Cn1cc(C(=O)c2ccccc2)c2ccccc2c1=O`, greater than 100 µM; that for `O=C1C[C@H](c2ccccc2)O[C@@H](c2ccccc2)C1`, greater than 100 µM. In turn, `N#CCCN(c1ccc(C=Nc2ccccc2)cc1)S(=O)(=O)c1ccccc1` displayed a TGI greater than 100 µM. Still for that read-out and setting: to `CC(=O)OC1CC[C@@]2(C)C(=CC[C@@H]3[C@@H]2CC[C@]2(C)Nc4nn(S(C)(=O)=O)cc4C[C@@H]32)C1` (stereo partly specified) belongs greater than 100 µM; to `CN(CCN1C(=O)c2cc([N+](=O)[O-])cc3cc([N+](=O)[O-])cc(c23)C1=O)CCN1C(=O)c2cc([N+](=O)[O-])cc3cc([N+](=O)[O-])cc(c23)C1=O`, greater than 100 µM. For the compound `CCN1C/C(=C\c2cc(OC)c(OC)cc2OC)C(=O)/C(=C/c2cc(OC)c(OC)cc2OC)C1`, the GI50 was 4.11 µM and the TGI amounted to 16.5 µM. `COC(=O)C(C(=O)C(=O)Nc1c(C)cccc1C)c1cnc2ccccc2n1` (stereo unspecified) registered a TGI greater than 100 µM. `CS(=O)(=O)Nc1cncc(-c2ccc3ncnc(Nc4ccc(F)c(Cl)c4)c3c2)c1`: the GI50 is 0.427 µM and the TGI was determined as 7.38 µM. `COC(=O)CCC(NC(=S)N/N=C(\C)c1cnc2ccccc2n1)C(=O)OC` (stereo unspecified): the TGI was greater than 100 µM. `O=C(c1ccccc1)c1c(CC(O)c2ccccn2)n(C(=O)c2ccccc2)c2ccccc12` (stereo unspecified) had a TGI of 84.3 µM.

For `CNNC1=NS(=O)(=O)c2cc(C#N)c(Cl)cc2S1`, the TGI was greater than 10 µM.

As for `O=c1oc2ccccc2nc1/C=C(\O)c1ccc(Cl)cc1`, the TGI was greater than 100 µM. On the same count and under the same terms, to `CN(C)c1ccc(C=Nc2ccc(-c3nc4ccccc4[nH]3)cc2)cc1` belongs greater than 100 µM; to `CCOC(=O)c1nc2ccc(C(F)(F)F)cc2nc1NCc1ccc(OC)cc1`, greater than 100 µM. Regarding `Fc1cccc(COc2ccc(Nc3ncnc4sc(-c5cccs5)cc34)cc2Cl)c1`, the GI50 is 5.97 µM and the TGI stood at 18.1 µM. With `Cc1ccc(NC(Nc2ccc(C)cc2C)=C(C(Cl)=C(Cl)Cl)[N+](=O)[O-])c(C)c1`, the TGI came to 33.8 µM. As to `N#CC12Cc3cc4c(cc3-c3cccc(c31)CCN2C(=O)c1ccccc1)OCO4` (stereo unspecified), the TGI was greater than 100 µM.
